In PubChem BioAssay (NCI) one finds TGI and GI50 data, which are given here for 82 molecules.

“And” between values parts separate entries of the source, which are not always exact repeats. Identical values can stand only once.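 These data come from cells grown in 96-well plates and exposed to compound for 48 hours at five concentrations. GI50: concentration for 50% inhibition of growth. TGI: total growth inhibition.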 Numbered stars: 1 amine (or outer) side, 2 acyl side, 3 side chain; on linkers, the order of the positions; unused ones are H or OH. Bridge positions count the residues as written; N and C are the ends. Square brackets hold non-standard residues; d marks the D form. Peptide text beside a SMILES is read from it. I, II: the chains in the order shown. * marks the point of attachment. Actinocin(9to1) = Cc1c2oc3c(C)ccc(C(=O)[*:1])c3nc-2c(C(=O)[*:2])c(N)c1=O; NMeT = CN[CH](C(=O)O)[CH](C)O; Iva = CC[C](C)(N)C(=O)O; Boc = CC(C)(C)OC(=O)*; X48 = C1CCC(=NO*)C1; Sar = CNCC(=O)O

The experiment concerns NCI-H322M lung. Kind of experiment: DTP human tumour cell line panel, 48 h.

The TGI is the concentration at which net growth stops. Molecule `COc1ccc2c3c([nH]c2c1[N+](=O)[O-])C(C)N(Cc1ccc([N+](=O)[O-])cc1)CC3` (stereo not drawn) had a TGI of 43.7 µM.

In the case of `COc1ccc2nccc(SCC(=O)O)c2c1`, the TGI was more than 100 µM.

`c1ccc(C2=NCCN2)c(C2=NCCN2)c1` displayed a TGI of more than 100 µM. `N#Cc1c(=O)c2ccccc2n2c1[nH]c1ccccc12`: the TGI is more than 100 µM. On the same count and under the same terms, for `Cc1cccc(C)c1CO` the value was more than 100 µM. As a reminder, the GI50 is the concentration at which growth is held to half of that of the control. Regarding `COc1cccc(/C=C/[N+](=O)[O-])c1`, the GI50 was 14.4 µM and the TGI worked out at 30.3 µM. The corresponding values for `C=C1C(=O)O[C@H]2[C@H]1CC/C(COC(=O)c1cc3ccccc3o1)=C\CC[C@@]1(C)O[C@@H]21` are 5.52 µM and 18.4 µM. `Cc1occc1C(=S)Nc1ccc(Cl)c(C(=O)OC(C(C)C)C(C)C)c1` showed a total growth inhibition concentration (TGI) of 38.7 µM. The same measure, in the same setting: with `COc1cc(/C=C2\N=C(c3ccccc3)N(c3nc4cc(C)c(C)cc4s3)C2=O)ccc1O` the figure was more than 100 µM; with `O=C(O)Cc1cc(=O)[nH]c2c1/C(=N/O)CCC2`, more than 100 µM.

As for `COC(=O)c1cc2c3ccccc3n3c(=O)c4cc5ccccc5nc4c(n1)c23`, the GI50 was more than 100 µM and the TGI was more than 100 µM.

The molecule `Nc1nc2c(c(=O)[nH]1)C(c1ccccc1)CC(=O)N2` (stereo not drawn) returned a TGI of more than 100 µM. Regarding `COc1cc2cc3c4cc(OC)c(OC)cc4cc[n+]3cc2cc1OC`, the TGI was more than 100 µM.

In the case of `CC1C/C(=C\c2ccc(OC(=O)C(C)(C)C)cc2)C(=O)/C(=C/c2ccc(OC(=O)C(C)(C)C)cc2)C1` (stereo not drawn), the TGI was more than 100 µM.

On to `CC(=O)OC1CCn2nnc(CO)c21` (stereo not drawn), for which the TGI is more than 100 µM.

`C=C(C)[C@@H]1CC[C@]2(C(=O)O)CC[C@]3(C)[C@H](CC[C@@H]4[C@@]5(C)CCC(NC(=O)c6cccc(OC(C)=O)c6OC(C)=O)C(C)(C)[C@@H]5CC[C@]43C)[C@@H]12` (stereo partly drawn): the GI50 is 0.791 µM and the TGI amounted to 3.69 µM. `CC1(C)CC2=C(Sc3ccccc3N2)C(=O)C1C(=O)C(=O)Nc1cccc([N+](=O)[O-])c1` (stereo not drawn) displayed a TGI of more than 100 µM. Same read-out and setting: with `COc1ccc(/C(=N\NC(=O)C(=O)NN)C(c2ccc(OC)cc2)C2(O)C(=O)Nc3ccccc32)cc1` (stereo not drawn) the figure was more than 100 µM. The same measure, in the same setting: with `CC(=O)O/C=C1/C[C@H]2[C@@H]3CCC4CC(C(C)=O)CC[C@]4(C)[C@H]3CC[C@]2(C)C1=O` (stereo partly drawn) the figure was more than 100 µM; with `CCC(C)(NC(=O)C(C)NC(=O)OC(C)(C)C)C(=O)NC(C)C(=O)NC(C)(CC)C(=O)ON=C1CCCC1` (stereo not drawn) (Boc-A[Iva]A[Iva]-X48; configuration not given here), more than 100 µM.

In turn, `CCC(C(=O)C(=O)C(CC)P1(=O)OC(C)(C)CN1C(C)(C)C)P1(=O)OC(C)(C)CN1C(C)(C)C` (stereo not drawn) registered a TGI of more than 100 µM. As to `C/C(=N\Nc1cc(C)c2ccccc2n1)c1ccccn1`, the GI50 was less than 0.0254 µM and the TGI is 3.05 µM. `Clc1ccc(OCc2nnc(CCCCCCCCc3nnc(COc4ccc(Cl)cc4Cl)n3Nc3ccccc3)n2Nc2ccccc2)c(Cl)c1` registered a TGI of more than 100 µM. As for `CCCC[C@H]1[C@@H](OCOc2ccccc2)COC(=O)N1[C@H](C)c1ccccc1`, the TGI was 73.6 µM.

As for `CNC(=S)NC(=O)c1c(Cl)n(C(=O)OC(C)(C)C)c2ccccc12`, the GI50 was more than 100 µM and the TGI was more than 100 µM. The molecule `CN=c1c2c(c3[nH]c4ccccc4c4cnc1c34)NCCC2=O` yielded a TGI of more than 10 µM. The molecule `Cc1cccc(C)c1NC(=O)C(=O)CC(=O)/C=C/c1ccccc1` registered a TGI of more than 100 µM. `O=c1[nH]/c(=C/c2ccc(OCc3ccccc3)cn2)c(=O)[nH]/c1=C/c1ccc(F)cc1` registered a TGI of more than 43.9 µM. In the case of `CC1=C(C(=O)Nc2ccc(Cl)c(Cl)c2)C(c2cccc(Cl)c2)NC(=O)N1` (stereo not drawn), the GI50 was 0.197 µM and the TGI came out at 1.88 µM. Molecule `CCOC(=O)Cc1ccc2c(c1O)C(=O)c1c(ccc(CC(=O)OCC)c1O)C2=O` yielded a TGI of more than 100 µM. For the molecule `CC(=O)[C@@H]1C/C(=C\OCc2ccccc2)O[C@H]1C`, the TGI is more than 100 µM. The same measure, in the same setting: for `COc1ccccc1C(O)(c1ccccc1)C(O)(c1ccccc1)c1ccccc1OC` (stereo not drawn) the value was more than 100 µM. With `Cc1c2oc3c(C)ccc(C(=O)NC4C(=O)NC(C(C)C)C(=O)N5CCCC5C(=O)N(C)CC(=O)N(C)C(C(C)O)C(=O)OC4C)c3nc-2c(C(=O)NC2C(=O)NC(C(C)C)C(=O)N3CCCC3C(=O)N(C)CC(=O)N(C)C(C(C)O)C(=O)OC2C)c(N)c1=O` (stereo not drawn) (I: TVP[Sar][NMeT] / II: TVP[Sar][NMeT]; ester I:1-I:C, II:1-II:C; linker I:N-II:N via Actinocin(9to1); configuration not given here), the GI50 is 8.07 µM and > 1 µM; the TGI was more than 100 µM. Regarding `Cc1ccc(/C(O)=C/c2nc3c(nc2NC24CC5CC(CC(C5)C2)C4)c(=O)oc2ccccc23)cc1`, the TGI was more than 100 µM.

With `CCN(CC)CCC(=O)c1ccc(C)cc1`, the TGI is more than 100 µM. Molecule `COc1cccc2c1CCc1c(-c3ccc(F)cc3)cc(-c3ccc4ccccc4n3)nc1-2` had a TGI of more than 100 µM. Still for that read-out and setting: with `CC(=O)NC1=C(NC(C)(C)C)C(=O)c2ccccc2C1=O` the figure was more than 100 µM; with `CN1CC(=O)N(C)c2ncn(Cc3ccccc3)c2C1=O`, more than 100 µM. Same read-out and setting: for `CCO/C=N\c1c(C#N)c(-c2ccc(Cl)cc2)cn1-c1ccc(C)cc1` the value was more than 100 µM. Turning to `CCC(=O)Nc1ccccc1C#C/C=C\C#Cc1ccccc1SC`, the GI50 is more than 100 µM and the TGI was more than 100 µM. With `COc1ccc(-c2c3c(cc4cc5c(cc24)OCO5)C(=O)OC3)cc1OC`, the TGI is more than 100 µM. The same measure, in the same setting: with `O=C1O[C@H](c2ccccc2)[C@@H]2CC3(CCN12)OCCO3` the figure was more than 100 µM; with `C#CCOCn1cnc2c(Sc3c([N+](=O)[O-])ncn3C)ncnc21`, more than 100 µM.

`C=C1C(=O)O[C@@H]2[C@@H]3O[C@@H](C[C@@H]13)[C@](C)(O)CC/C=C(\C)CCC[C@@H]2C` came in with a TGI of 34.7 µM. Consider `c1cc(N2CCCN(c3ccc(C4=NCCCN4)cc3)CC2)ccc1C1=NCCCN1`, for which the GI50 is more than 100 µM and the TGI is more than 100 µM. The molecule `O=[N+]([O-])c1ccc(N=Nc2c(O)ccc3ccccc23)c([N+](=O)[O-])c1` returned a TGI of more than 100 µM.

Take `CC1(C)CCc2c(c(N=Nc3ccc(S(N)(=O)=O)cc3)c3ccccc3c2O)O1`: the TGI came to 26.6 µM. With `CC(=O)CC(N)=O`, the TGI is more than 100 µM.

Molecule `Cc1cc(=O)oc2c(C)c(O)ccc12` showed a TGI of more than 100 µM.

Consider `Cc1cc(O)cc2c1[C@]1(C)CCC3C(C)(C)CCC[C@]3(C)[C@H]1C2` (stereo partly drawn), for which the GI50 was 20.9 µM and the TGI came out at 36.9 µM. As for `O=C1c2ccccc2C(=O)N1CC1S(=O)(=O)OCCOS1(=O)=O`, the TGI is more than 100 µM.

Regarding `CO[C@@H]1C[C@H]2[C@@H]3CC[C@H]([C@@H](C)CO)[C@@]3(C)CC[C@@H]2[C@@]2(C)CC[C@H]3C[C@]312`, the TGI was more than 100 µM. In the case of `COc1ccc(-c2cc(-c3ccc(Cl)cc3)nc(SCCCC(=O)NO)n2)cc1`, the GI50 is 0.816 µM and the TGI is 6.32 µM. With `Cc1c(S(=O)(=O)O)ccc(N=Nc2c(O)c(C(=O)O)cc3ccccc23)c1Cl`, the TGI was more than 100 µM. Regarding `COc1ccc(P2(=S)Oc3ccccc3-c3ccccc3O2)cc1`, the TGI was more than 100 µM. Consider `Cc1n[nH]c(=O)n1/N=C/c1ccc(F)cc1`, for which the TGI is more than 100 µM. For `N#Cc1ccc2c(c1)C(=O)c1c-2n(CCCCl)c(=O)c2cc([N+](=O)[O-])ccc12`, the GI50 is more than 100 µM and the TGI is more than 100 µM. On to `O=C(Nc1ccc(Cl)cc1Cl)C1C(=O)C(=O)N(c2ccc(Cl)cc2Cl)C1=O` (stereo not drawn), for which the TGI is more than 100 µM.

On to `Cc1nc2sc(C(=O)Nc3cccc4ccccc34)c(N)c2cc1C(O)c1ccccc1` (stereo not drawn), for which the GI50 is 0.318 µM and the TGI is 52.6 µM.

Consider `Cc1cc(C)c(S(=O)(=O)N2CCCN(S(=O)(=O)c3c(C)cc(C)cc3C)OCCCO2)c(C)c1`, for which the TGI was more than 100 µM.

`C1CSCCSCCSCCSC1`: the TGI was more than 100 µM.

For the molecule `O=P1(Oc2ccc(Cl)cc2Cl)Oc2ccc3ccccc3c2-c2c(ccc3ccccc23)O1`, the TGI worked out at 57.1 µM. Same read-out and setting: for `CC12CCC(C(Nc3cc(C(F)(F)F)cc(C(F)(F)F)c3)C1=O)C2(C)C` (stereo not drawn) the value was more than 100 µM. `CCCCN1CN2C(=O)C(C(=O)OCC)C(=O)c3sc4nc(SC)nc1c4c32` (stereo not drawn) had a TGI of 27.1 µM. In the case of `CN(C)CC1CN=C(N)O1` (stereo not drawn), the TGI was more than 100 µM.

Molecule `CC1CN=C(Nc2ccccc2)S1` (stereo not drawn) gave a TGI of more than 100 µM. As to `O=c1cc(N2CCN(CCCCCOc3cc(O)c4c(=O)cc(-c5ccccc5)oc4c3)CC2)c2ccccc2o1`, the GI50 is more than 100 µM and the TGI is more than 100 µM. On to `C=C1C(=O)OC2C1CCC(C)C1C=CC(=O)C12C` (stereo not drawn), for which the TGI came out at 17.9 µM. Same read-out and setting: for `COC(=O)[C@]12CC[C@H]3CC[C@H]([C@H]31)[C@H](c1ccccc1)N2` the value was 42.2 µM.

`COc1cc2ncn(-c3cc(O[C@@H](C)c4ccccc4Cl)c(C(N)=O)s3)c2cc1OC`: the GI50 was 5.2 µM and the TGI was more than 25 µM. `COC(=O)c1ccccc1C1CN=NC12Cc1ccccc1C2=O` (stereo not drawn) had a TGI of more than 100 µM. On the same count and under the same terms, with `CCOP(=O)(OCC)/C(=C/NC(=S)c1ccncc1)C(=O)OC` the figure was more than 100 µM.

With `CCCN(CCC)c1ccc(/C=C/c2ccc3cc(OCC)ccc3n2)cc1`, the GI50 is more than 100 µM and the TGI is more than 100 µM.

Molecule `O=C(O)CCCSc1ccccc1` came in with a TGI of more than 100 µM.

Consider `O=S(=O)(NCCCNc1nccc(-c2c(-c3ccc(F)c(O)c3)nc3sccn23)n1)c1ccc(F)cc1`, for which the GI50 was 2.35 µM and the TGI came out at 6.8 µM.

With `CC1=C[C@]2(O)C(=O)[C@H](C)C[C@H]3[C@@H](CC[C@@](C)(O)/C=C\2C1=O)C3(C)C`, the TGI is more than 100 µM.

In turn, `Clc1nssc1=Nc1nonc1-c1ccccc1` registered a TGI of more than 100 µM. Regarding `C[C@]12CC[C@@H]3c4cc(-c5ccc(F)cc5)c(O)cc4CC[C@H]3[C@@H]1CC[C@@H]2O`, the GI50 is 11.1 µM and the TGI is 23.2 µM. Molecule `N#CC1C(=O)SC2c3ccccc3C(=O)c3ccccc3C12` (stereo not drawn) displayed a TGI of more than 10 µM. With `O=C1CC(=O)N(C(=O)c2nn(-c3ccc(Cl)cc3)cc2O)N1`, the GI50 is 0.478 µM and the TGI was more than 57.7 µM. For `NC(N)=NS(=O)(=O)c1ccc(NNc2c3ccccc3nc3c(C(=O)Nc4ccc(S(=O)(=O)N=C(N)N)cc4)cccc23)cc1`, the TGI is more than 100 µM. For `COc1ccc(NC([Se])=NC23CC4CC(CC(C4)C2)C3)cc1`, the GI50 is 2.35 µM and the TGI came to 9.73 µM.
